Measurements: the supplement of paper PMC8728848
Some of the results follow.

How the values were obtained:
Experiment in all cases: glycan array binding signal (z-score within array); higher = stronger binding
Conditions in all cases: glycan notation: IUPAC condensed, linker removed
Fuc(a1-2)Gal = molecular target: Fuc(a1-2)Gal
Outline: (§1)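 The Consortium for Functional Glycomics database supplied 3228 glycan arrays, of which those lacking an available protein sequence were dropped. The binding signal, a within-array Z-score, was averaged across arrays of the same protein sequence and across linkers. Negative scores can be read as non-binding.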

Fuc(a1-2)Gal(b1-3)GalNAc = molecular target: Fuc(a1-2)Gal(b1-3)GalNAc
Outline: as §1

[1] = molecular target: Fuc(a1-2)Gal(b1-3)GalNAc(a1-3)[Fuc(a1-2)]Gal(b1-4)Glc
Outline: as §1

[2] = molecular target: Fuc(a1-2)Gal(b1-3)GalNAc(a1-3)[Fuc(a1-2)]Gal(b1-4)GlcNAc
Outline: as §1

[3] = molecular target: Fuc(a1-2)Gal(b1-3)GalNAc(b1-3)Gal
Outline: as §1

[4] = molecular target: Fuc(a1-2)Gal(b1-3)GalNAc(b1-3)Gal(a1-4)Gal(b1-4)Glc
Outline: as §1

[5] = molecular target: Fuc(a1-2)Gal(b1-3)GalNAc(b1-4)[Neu5Ac(a2-3)]Gal(b1-4)Glc
Outline: as §1

Fuc(a1-2)Gal(b1-3)GlcNAc = molecular target: Fuc(a1-2)Gal(b1-3)GlcNAc
Outline: as §1

[6] = molecular target: Fuc(a1-2)Gal(b1-3)GlcNAc(b1-2)Man(a1-3)[Fuc(a1-2)Gal(b1-3)GlcNAc(b1-2)Man(a1-6)]Man(b1-4)GlcNAc(b1-4)GlcNAc
Outline: as §1

[7] = molecular target: Fuc(a1-2)Gal(b1-3)GlcNAc(b1-2)Man(a1-3)[Fuc(a1-2)Gal(b1-3)GlcNAc(b1-2)Man(a1-6)]Man(b1-4)GlcNAc(b1-4)[Fuc(a1-6)]GlcNAc
Outline: as §1

[8] = molecular target: Fuc(a1-2)Gal(b1-3)GlcNAc(b1-3)Gal(b1-4)Glc
Outline: as §1

[9] = molecular target: Fuc(a1-2)Gal(b1-3)GlcNAc(b1-3)GalNAc
Outline: as §1

[10] = molecular target: Fuc(a1-2)Gal(b1-3)GlcNAc(b1-3)[Fuc(a1-2)Gal(b1-3)GlcNAc(b1-6)]GalNAc
Outline: as §1

[11] = molecular target: Fuc(a1-2)Gal(b1-3)GlcNAc(b1-3)[Gal(b1-4)GlcNAc(b1-6)]Gal(b1-4)Glc
Outline: as §1

[12] = molecular target: Fuc(a1-2)Gal(b1-3)GlcNAc(b1-3)[Neu5Ac(a2-6)Gal(b1-4)GlcNAc(b1-6)]Gal(b1-4)Glc
Outline: as §1

[13] = molecular target: Fuc(a1-2)Gal(b1-3)GlcNAc6S
Outline: as §1

[14] = molecular target: Fuc(a1-2)Gal(b1-3)[Fuc(a1-4)]GlcNAc
Outline: as §1

[15] = molecular target: Fuc(a1-2)Gal(b1-3)[Fuc(a1-4)]GlcNAc(b1-2)Man(a1-3)[Fuc(a1-2)Gal(b1-3)[Fuc(a1-4)]GlcNAc(b1-2)Man(a1-3)]Man(b1-4)GlcNAc(b1-4)GlcNAc
Outline: as §1

[16] = molecular target: Fuc(a1-2)Gal(b1-3)[Fuc(a1-4)]GlcNAc(b1-2)Man(a1-3)[Fuc(a1-2)Gal(b1-3)[Fuc(a1-4)]GlcNAc(b1-2)Man(a1-6)]Man(b1-4)GlcNAc(b1-4)[Fuc(a1-6)]GlcNAc(b1-4)[Fuc(a1-6)]GlcNAc
Outline: as §1

[17] = molecular target: Fuc(a1-2)Gal(b1-3)[Fuc(a1-4)]GlcNAc(b1-3)[Fuc(a1-3)[Gal(b1-4)]GlcNAc(b1-6)]Gal(b1-4)Glc
Outline: as §1

[18] = molecular target: Fuc(a1-2)Gal(b1-3)[Fuc(a1-4)]GlcNAc(b1-3)[Gal(b1-4)GlcNAc(b1-6)]Gal(b1-4)Glc
Outline: as §1

[19] = molecular target: Fuc(a1-2)Gal(b1-4)Fuc(a1-3)]GlcNAc(b1-2)Man(a1-3)[Fuc(a1-2)Gal(b1-4)[Fuc(a1-3)]GlcNAc(b1-2)Man(a1-6)]Man(b1-4)GlcNAc(b1-4)GlcNAc
Outline: as §1

Fuc(a1-2)Gal(b1-4)Glc = molecular target: Fuc(a1-2)Gal(b1-4)Glc
Outline: as §1

Fuc(a1-2)Gal(b1-4)Glc6S = molecular target: Fuc(a1-2)Gal(b1-4)Glc6S
Outline: as §1

Fuc(a1-2)Gal(b1-4)GlcNAc = molecular target: Fuc(a1-2)Gal(b1-4)GlcNAc
Outline: as §1

[20] = molecular target: Fuc(a1-2)Gal(b1-4)GlcNAc(b1-2)Man
Outline: as §1

[21] = molecular target: Fuc(a1-2)Gal(b1-4)GlcNAc(b1-2)Man(a1-3)[Fuc(a1-2)Gal(b1-4)GlcNAc(b1-2)Man(a1-6)]Man(b1-4)GlcNAc(b1-4)GlcNAc
Outline: as §1

[22] = molecular target: Fuc(a1-2)Gal(b1-4)GlcNAc(b1-2)Man(a1-3)[Fuc(a1-2)Gal(b1-4)GlcNAc(b1-2)Man(a1-6)]Man(b1-4)GlcNAc(b1-4)[Fuc(a1-6)]GlcNAc
Outline: as §1

[23] = molecular target: Fuc(a1-2)Gal(b1-4)GlcNAc(b1-2)[Fuc(a1-2)Gal(b1-4)GlcNAc(b1-4)]Man(a1-3)[Fuc(a1-2)Gal(b1-4)GlcNAc(b1-2)Man(a1-6)]Man(b1-4)GlcNAc(b1-4)GlcNAc
Outline: as §1

[24] = molecular target: Fuc(a1-2)Gal(b1-4)GlcNAc(b1-3)Gal(b1-4)GlcNAc
Outline: as §1

[25] = molecular target: Fuc(a1-2)Gal(b1-4)GlcNAc(b1-3)Gal(b1-4)GlcNAc(b1-2)Man(a1-3)[Fuc(a1-2)Gal(b1-4)GlcNAc(b1-3)Gal(b1-4)GlcNAc(b1-2)Man(a1-6)]Man(b1-4)GlcNAc(b1-4)GlcNAc
Outline: as §1

[26] = molecular target: Fuc(a1-2)Gal(b1-4)GlcNAc(b1-3)Gal(b1-4)GlcNAc(b1-3)Gal(b1-4)GlcNAc
Outline: as §1

[27] = molecular target: Fuc(a1-2)Gal(b1-4)GlcNAc(b1-3)GalNAc
Outline: as §1

[28] = molecular target: Fuc(a1-2)Gal(b1-4)GlcNAc(b1-3)[Fuc(a1-2)Gal(b1-4)GlcNAc(b1-6)]GalNAc
Outline: as §1

[29] = molecular target: Fuc(a1-2)Gal(b1-4)GlcNAc(b1-3)[Fuc(a1-3)[Gal(b1-4)]GlcNAc(b1-6)]Gal(b1-4)Glc
Outline: as §1

[30] = molecular target: Fuc(a1-2)Gal(b1-4)GlcNAc(b1-6)GalNAc
Outline: as §1

[31] = molecular target: Fuc(a1-2)Gal(b1-4)GlcNAc6S
Outline: as §1

B1: DrGal9 (Danio rerio) (protein)
chain: MAFYQQPPYYNPRIPFSGPIQGGLQDGKSIIISGRVLPGANRFHVNLQCGSHSEANVALHFNPRYEDTDYVVNNSYLNRTWGSEERKYESPFAQGQTFTLQILVAQDKYKISTNGRHFMDYKHRIPFTQVDTVAVEGMVEVNSVAFQNPAGFIPPQAGYAPQYAVPPGCGFPAFPSAPNYTIPHKTVMNGGLHPGKNIVINGVVNPNAKSIIFNLCYRSGIAFHYNPRFDENVVVRNTNQMEKWGAEERFGGLPFHKGQPFQVTISCNPQHYNVFVNGKQEHTYKHRYTKLNDIDILEICGDLQLTSVQA
glycan array binding signal (z-score) (Fuc(a1-2)Gal): -0.362
glycan array binding signal (z-score) (Fuc(a1-2)Gal(b1-3)GalNAc): -0.393
glycan array binding signal (z-score) [1]: -0.413
glycan array binding signal (z-score) [2]: -0.403
glycan array binding signal (z-score) [3]: -0.385
glycan array binding signal (z-score) [4]: -0.367
glycan array binding signal (z-score) [5]: -0.359
glycan array binding signal (z-score) (Fuc(a1-2)Gal(b1-3)GlcNAc): 0.362
glycan array binding signal (z-score) [6]: 0.6
glycan array binding signal (z-score) [7]: -0.214
glycan array binding signal (z-score) [8]: 1.02
glycan array binding signal (z-score) [9]: -0.086
glycan array binding signal (z-score) [10]: 0.579
glycan array binding signal (z-score) [11]: 0.889
glycan array binding signal (z-score) [12]: -0.123
glycan array binding signal (z-score) [13]: 0.19
glycan array binding signal (z-score) [14]: -0.365
glycan array binding signal (z-score) [15]: -0.343
glycan array binding signal (z-score) [16]: -0.388
glycan array binding signal (z-score) [17]: -0.349
glycan array binding signal (z-score) [18]: -0.351
glycan array binding signal (z-score) [19]: -0.318
glycan array binding signal (z-score) (Fuc(a1-2)Gal(b1-4)Glc): -0.377
glycan array binding signal (z-score) (Fuc(a1-2)Gal(b1-4)Glc6S): 0.366
glycan array binding signal (z-score) (Fuc(a1-2)Gal(b1-4)GlcNAc): -0.239
glycan array binding signal (z-score) [20]: -0.38
glycan array binding signal (z-score) [21]: 0.772
glycan array binding signal (z-score) [22]: -0.198
glycan array binding signal (z-score) [23]: 0.03
glycan array binding signal (z-score) [24]: 0.484
glycan array binding signal (z-score) [25]: 3.83
glycan array binding signal (z-score) [26]: 1.21
glycan array binding signal (z-score) [27]: -0.32
glycan array binding signal (z-score) [28]: -0.039
glycan array binding signal (z-score) [29]: 0.271
glycan array binding signal (z-score) [30]: -0.188
glycan array binding signal (z-score) [31]: -0.243
